In publication PMC5155276:
These are yes or no findings as the source states them, for the method shown. Binding seen in cells or lysates may run through a third protein. Some entries that bind do so weakly or less than the wild type. For part of these data: Tags and fused reporters may be left off the sequences shown.

Amino acid sequences for entries named in this document (tags omitted).
UniProt Q96HR9: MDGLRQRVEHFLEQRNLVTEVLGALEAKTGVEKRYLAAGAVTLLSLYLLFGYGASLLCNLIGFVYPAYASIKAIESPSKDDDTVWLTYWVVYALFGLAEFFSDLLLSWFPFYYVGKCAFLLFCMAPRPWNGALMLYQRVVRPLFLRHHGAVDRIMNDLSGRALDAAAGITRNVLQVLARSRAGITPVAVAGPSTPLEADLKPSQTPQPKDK
UniProt P25025: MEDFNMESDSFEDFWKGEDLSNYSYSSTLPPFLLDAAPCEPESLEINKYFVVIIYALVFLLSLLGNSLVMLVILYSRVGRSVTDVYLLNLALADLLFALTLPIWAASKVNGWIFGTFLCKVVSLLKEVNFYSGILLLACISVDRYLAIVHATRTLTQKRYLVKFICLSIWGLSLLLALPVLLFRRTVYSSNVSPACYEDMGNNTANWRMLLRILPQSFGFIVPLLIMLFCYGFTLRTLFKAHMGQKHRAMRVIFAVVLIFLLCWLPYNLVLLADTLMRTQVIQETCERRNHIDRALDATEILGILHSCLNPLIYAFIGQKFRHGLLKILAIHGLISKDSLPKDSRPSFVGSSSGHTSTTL
UniProt Q00765: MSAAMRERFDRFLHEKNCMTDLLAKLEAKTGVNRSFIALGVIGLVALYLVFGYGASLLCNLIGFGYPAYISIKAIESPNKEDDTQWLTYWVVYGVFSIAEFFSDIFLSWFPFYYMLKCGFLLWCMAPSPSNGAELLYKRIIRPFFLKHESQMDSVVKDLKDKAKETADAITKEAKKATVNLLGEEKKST

Tests used:
[1] = molecular target: T1, HA-tagged CXCR1 (human (PCR from genomic DNA of HEK293 cells)) (UniProt P25024); test: co-IP; HEK293 cells co-transfected with HA-tagged CXCRs and REEP plasmids; lysis in 50 mM Tris-HCl pH 7.5, 150 mM NaCl, 1% Triton X-100; anti-HA antibody-conjugated beads, 4 °C, 2 h; western blotting; in Fig. 5B cells were treated with IL-8 for the indicated times before lysis
T1 sequence: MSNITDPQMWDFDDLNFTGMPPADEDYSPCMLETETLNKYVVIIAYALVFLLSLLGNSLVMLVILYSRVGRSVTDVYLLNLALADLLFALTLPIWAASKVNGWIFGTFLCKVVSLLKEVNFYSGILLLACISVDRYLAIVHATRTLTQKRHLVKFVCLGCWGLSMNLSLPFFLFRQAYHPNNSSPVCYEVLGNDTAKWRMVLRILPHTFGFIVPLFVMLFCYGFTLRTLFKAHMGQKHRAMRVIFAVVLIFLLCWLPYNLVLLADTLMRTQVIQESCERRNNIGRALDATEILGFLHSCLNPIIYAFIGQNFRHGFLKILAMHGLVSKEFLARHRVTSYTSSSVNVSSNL

REEP6 (human) = REEP6 (human) (UniProt Q96HR9); test: co-IP; immunoprecipitation with cells expressing both REEP5 and REEP6 (Supplementary Fig. S2); bait and tags not shown
[2] = molecular target: HA-tagged CXCR2 (human (PCR from genomic DNA of HEK293 cells)) (UniProt P25025); test: co-IP; HEK293 cells co-transfected with HA-tagged CXCRs and REEP plasmids; lysis in 50 mM Tris-HCl pH 7.5, 150 mM NaCl, 1% Triton X-100; anti-HA antibody-conjugated beads, 4 °C, 2 h; western blotting; in Fig. 5B cells were treated with IL-8 for the indicated times before lysis

Row | Substance | binding [1] | binding (REEP6 (human)) | binding [2]
1 | FLAG-REEP6 (from UniProt Q96HR9 1-211) | binds | – | –
2 | REEP5 (from UniProt Q00765 1-189) | binds | binds | no binding
3 | REEP6 (from UniProt Q96HR9 1-211) | binds | – | no binding
